Source: article PMC2661965
These are yes or no findings as the source states them, for the method shown. For some assays here: Binding seen in cells or lysates may run through a third protein. Some binding calls cover weakened binding; strength is not graded here. For some assays here: Sequences can lack the tags named with a protein.

T1: HA-Trap-80 (mouse) (UniProt Q8VCD5)
T1 sequence: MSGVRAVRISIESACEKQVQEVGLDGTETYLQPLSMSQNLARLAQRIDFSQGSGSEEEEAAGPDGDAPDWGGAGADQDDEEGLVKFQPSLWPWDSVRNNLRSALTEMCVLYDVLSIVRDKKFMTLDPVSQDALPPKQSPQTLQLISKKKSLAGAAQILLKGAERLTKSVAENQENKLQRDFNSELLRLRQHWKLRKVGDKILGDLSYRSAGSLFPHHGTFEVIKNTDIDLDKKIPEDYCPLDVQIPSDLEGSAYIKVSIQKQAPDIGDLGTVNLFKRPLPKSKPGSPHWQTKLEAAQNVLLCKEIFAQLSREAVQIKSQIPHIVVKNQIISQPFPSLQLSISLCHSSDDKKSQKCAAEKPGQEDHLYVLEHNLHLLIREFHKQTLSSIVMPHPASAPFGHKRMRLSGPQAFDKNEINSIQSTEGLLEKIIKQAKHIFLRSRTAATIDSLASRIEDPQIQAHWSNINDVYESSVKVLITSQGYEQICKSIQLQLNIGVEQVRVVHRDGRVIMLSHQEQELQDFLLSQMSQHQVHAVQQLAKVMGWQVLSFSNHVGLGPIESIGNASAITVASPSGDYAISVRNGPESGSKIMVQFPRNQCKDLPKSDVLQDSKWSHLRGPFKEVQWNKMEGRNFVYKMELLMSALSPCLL

T2: V2-Trap-80 (mouse) (UniProt Q8VCD5)
T2 sequence: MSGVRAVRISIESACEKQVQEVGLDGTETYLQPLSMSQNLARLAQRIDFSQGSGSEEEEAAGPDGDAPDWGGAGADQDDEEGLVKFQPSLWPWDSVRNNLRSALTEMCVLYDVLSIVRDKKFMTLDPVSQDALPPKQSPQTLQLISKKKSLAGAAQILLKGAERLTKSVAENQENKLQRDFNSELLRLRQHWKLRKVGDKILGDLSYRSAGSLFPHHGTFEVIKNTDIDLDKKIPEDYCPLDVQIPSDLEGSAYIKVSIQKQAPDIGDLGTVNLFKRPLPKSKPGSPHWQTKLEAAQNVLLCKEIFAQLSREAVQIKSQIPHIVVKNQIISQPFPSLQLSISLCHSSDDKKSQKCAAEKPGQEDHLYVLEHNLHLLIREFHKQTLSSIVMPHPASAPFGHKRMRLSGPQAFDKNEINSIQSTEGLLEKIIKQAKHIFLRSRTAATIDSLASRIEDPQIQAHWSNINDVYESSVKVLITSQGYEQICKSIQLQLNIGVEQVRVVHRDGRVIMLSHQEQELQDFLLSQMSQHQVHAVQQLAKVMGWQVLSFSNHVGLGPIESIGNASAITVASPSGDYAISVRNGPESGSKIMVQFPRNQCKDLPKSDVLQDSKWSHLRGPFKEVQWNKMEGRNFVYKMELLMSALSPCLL

T3: Gal4 DNA-binding domain fused to Trap-80 NT (aa 1–335) (mouse) (UniProt Q8VCD5)
T3 sequence: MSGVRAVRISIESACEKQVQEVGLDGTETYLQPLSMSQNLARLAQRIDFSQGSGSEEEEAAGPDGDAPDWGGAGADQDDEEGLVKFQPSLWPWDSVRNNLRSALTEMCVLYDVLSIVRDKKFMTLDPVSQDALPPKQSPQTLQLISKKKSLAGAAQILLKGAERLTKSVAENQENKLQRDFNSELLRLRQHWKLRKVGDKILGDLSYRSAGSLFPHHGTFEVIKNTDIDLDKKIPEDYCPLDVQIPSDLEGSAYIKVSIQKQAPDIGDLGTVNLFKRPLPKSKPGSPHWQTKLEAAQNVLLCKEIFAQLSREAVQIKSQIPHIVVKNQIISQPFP

T4: Gal4 DNA-binding domain fused to full-length Trap-80 (mouse) (UniProt Q8VCD5)
T4 sequence: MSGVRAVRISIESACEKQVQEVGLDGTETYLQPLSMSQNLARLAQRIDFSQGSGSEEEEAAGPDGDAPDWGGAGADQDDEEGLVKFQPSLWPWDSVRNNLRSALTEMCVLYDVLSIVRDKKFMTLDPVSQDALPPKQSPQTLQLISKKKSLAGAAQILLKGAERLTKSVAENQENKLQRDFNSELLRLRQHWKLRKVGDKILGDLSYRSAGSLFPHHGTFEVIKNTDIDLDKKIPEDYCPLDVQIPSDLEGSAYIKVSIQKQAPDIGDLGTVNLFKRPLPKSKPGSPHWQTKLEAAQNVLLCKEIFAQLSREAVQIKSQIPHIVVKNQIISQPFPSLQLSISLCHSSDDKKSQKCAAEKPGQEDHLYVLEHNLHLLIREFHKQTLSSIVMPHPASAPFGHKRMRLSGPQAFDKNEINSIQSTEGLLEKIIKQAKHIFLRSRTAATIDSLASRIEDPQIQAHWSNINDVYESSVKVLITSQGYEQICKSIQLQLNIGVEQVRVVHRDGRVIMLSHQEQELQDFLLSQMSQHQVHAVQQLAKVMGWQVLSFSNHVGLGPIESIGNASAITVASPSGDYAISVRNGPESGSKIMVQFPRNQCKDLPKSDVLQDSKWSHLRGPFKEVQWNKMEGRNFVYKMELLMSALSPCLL

T5: p65-V2 (mouse), Q04207
T5 chain: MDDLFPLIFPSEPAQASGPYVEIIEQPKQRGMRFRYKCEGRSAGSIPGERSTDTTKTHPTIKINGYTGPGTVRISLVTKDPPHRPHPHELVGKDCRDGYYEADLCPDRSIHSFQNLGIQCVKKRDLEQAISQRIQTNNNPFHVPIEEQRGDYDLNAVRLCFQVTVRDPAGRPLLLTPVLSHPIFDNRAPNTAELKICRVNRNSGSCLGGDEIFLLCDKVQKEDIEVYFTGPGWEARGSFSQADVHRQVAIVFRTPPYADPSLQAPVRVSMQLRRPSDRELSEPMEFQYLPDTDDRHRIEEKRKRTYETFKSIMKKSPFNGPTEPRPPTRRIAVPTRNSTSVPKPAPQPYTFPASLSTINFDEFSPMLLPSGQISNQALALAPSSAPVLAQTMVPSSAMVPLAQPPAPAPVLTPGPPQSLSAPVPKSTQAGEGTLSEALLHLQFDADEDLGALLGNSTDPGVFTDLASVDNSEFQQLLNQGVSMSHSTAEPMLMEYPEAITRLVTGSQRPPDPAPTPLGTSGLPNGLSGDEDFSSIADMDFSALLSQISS


How the values were obtained:
HA-Trap-80 (mouse) = target: T1, HA-Trap-80 (mouse); experiment: co-IP; HEK-293 co-transfected with p65 and HA-Trap-80; nuclear extracts after TNF-α; IP with anti-HA or anti-p65, western blot; salt diluted to 100 mM, washed in L1 + 150 mM KCl
V2-Trap-80 (mouse) = target: T2, V2-Trap-80 (mouse); experiment: split reporter; BiFC with Venus fragments V1 and V2 in co-transfected HEK-293 cells; fluorescence intensity by flow cytometry, as percent of p65-V1 with V2-Trap-80
p65-V2 (mouse) = p65-V2 (mouse) (UniProt Q04207); experiment: as above
[1] = target: T3, Gal4 DNA-binding domain fused to Trap-80 NT (aa 1–335) (mouse); experiment: two-hybrid; same hybrids; growth on medium lacking histidine (25 mM 3-amino triazole by the methods); not shown
[2] = target: T4, Gal4 DNA-binding domain fused to full-length Trap-80 (mouse); experiment: as above
[3] = target: T3, Gal4 DNA-binding domain fused to Trap-80 NT (aa 1–335) (mouse); experiment: two-hybrid; Y153 yeast; Gal4 activation domain-p65 fragments (pAct2) with Gal4 DNA-binding domain-Trap-80 (pGBT9); LacZ read by colony lift on nitrocellulose, lysis, X-Gal at 37 °C
p65-V2 (mouse), Q04207 = target: T5, p65-V2 (mouse), Q04207; experiment: split reporter; BiFC with Venus fragments V1 and V2 in co-transfected HEK-293 cells; fluorescence intensity by flow cytometry, as percent of p65-V1 with V2-Trap-80; conditions: remark: other sources report otherwise
[4] = target: full-length mouse p65 (pCDNA3) (mouse) (UniProt Q04207); experiment: co-IP; HEK-293 co-transfected with p65 and HA-Trap-80; nuclear extracts after TNF-α; IP with anti-HA or anti-p65, western blot; salt diluted to 100 mM, washed in L1 + 150 mM KCl
[5] = target: T4, Gal4 DNA-binding domain fused to full-length Trap-80 (mouse); experiment: two-hybrid; Y153 yeast; Gal4 activation domain-p65 fragments (pAct2) with Gal4 DNA-binding domain-Trap-80 (pGBT9); LacZ read by colony lift on nitrocellulose, lysis, X-Gal at 37 °C

Row | binding (V2-Trap-80 (mouse)) | binding (p65-V2 (mouse)) | Molecule | other results
1 | binds |  | p65-V1 (from UniProt Q04207 1-549) | 
2 | no binding | binds | p65DBD-V1 (from UniProt Q04207 1-305) (domain or fragment) | 
3 | binds | binds | p65ΔTA2 fused to Venus fragment 1 (from UniProt Q04207 1-549) | 

Second part, the molecule before the results:

Row | Molecule | binding (V2-Trap-80 (mouse)) | binding (p65-V2 (mouse)) | other results
4 | full-length mouse p65 (pCDNA3) (from UniProt Q04207 1-549) |  |  | binding (HA-Trap-80 (mouse)): binds
5 | p65ΔTA1 fused to Venus fragment 1 (from UniProt Q04207 1-519) (domain or fragment) | binds | binds | 
6 | p65ΔTA1&2 fused to Venus fragment 1 (from UniProt Q04207 1-519) (domain or fragment) | no binding | binds | 
7 | p65ΔTA2 TA1 DF539AA fused to Venus fragment 1 (from UniProt Q04207 1-549) | no binding |  | 
8 | Gal4 activation domain fused to p65 CT1 (aa 306–549) (domain or fragment, UniProt Q04207 306-549) YETFKSIMKKSPFNGPTEPRPPTRRIAVPTRNSTSVPKPAPQPYTFPASLSTINFDEFSPMLLPSGQISNQALALAPSSAPVLAQTMVPSSAMVPLAQPPAPAPVLTPGPPQSLSAPVPKSTQAGEGTLSEALLHLQFDADEDLGALLGNSTDPGVFTDLASVDNSEFQQLLNQGVSMSHSTAEPMLMEYPEAITRLVTGSQRPPDPAPTPLGTSGLPNGLSGDEDFSSIADMDFSALLSQISS |  |  | binding [1]: binds; binding [2]: binds; binding [3]: binds
9 | p65-V1, Q04207 1-549 (protein) MDDLFPLIFPSEPAQASGPYVEIIEQPKQRGMRFRYKCEGRSAGSIPGERSTDTTKTHPTIKINGYTGPGTVRISLVTKDPPHRPHPHELVGKDCRDGYYEADLCPDRSIHSFQNLGIQCVKKRDLEQAISQRIQTNNNPFHVPIEEQRGDYDLNAVRLCFQVTVRDPAGRPLLLTPVLSHPIFDNRAPNTAELKICRVNRNSGSCLGGDEIFLLCDKVQKEDIEVYFTGPGWEARGSFSQADVHRQVAIVFRTPPYADPSLQAPVRVSMQLRRPSDRELSEPMEFQYLPDTDDRHRIEEKRKRTYETFKSIMKKSPFNGPTEPRPPTRRIAVPTRNSTSVPKPAPQPYTFPASLSTINFDEFSPMLLPSGQISNQALALAPSSAPVLAQTMVPSSAMVPLAQPPAPAPVLTPGPPQSLSAPVPKSTQAGEGTLSEALLHLQFDADEDLGALLGNSTDPGVFTDLASVDNSEFQQLLNQGVSMSHSTAEPMLMEYPEAITRLVTGSQRPPDPAPTPLGTSGLPNGLSGDEDFSSIADMDFSALLSQISS |  |  | binding (p65-V2 (mouse), Q04207): binds
10 | HA-Trap-80 (protein, UniProt Q8VCD5 1-649) MSGVRAVRISIESACEKQVQEVGLDGTETYLQPLSMSQNLARLAQRIDFSQGSGSEEEEAAGPDGDAPDWGGAGADQDDEEGLVKFQPSLWPWDSVRNNLRSALTEMCVLYDVLSIVRDKKFMTLDPVSQDALPPKQSPQTLQLISKKKSLAGAAQILLKGAERLTKSVAENQENKLQRDFNSELLRLRQHWKLRKVGDKILGDLSYRSAGSLFPHHGTFEVIKNTDIDLDKKIPEDYCPLDVQIPSDLEGSAYIKVSIQKQAPDIGDLGTVNLFKRPLPKSKPGSPHWQTKLEAAQNVLLCKEIFAQLSREAVQIKSQIPHIVVKNQIISQPFPSLQLSISLCHSSDDKKSQKCAAEKPGQEDHLYVLEHNLHLLIREFHKQTLSSIVMPHPASAPFGHKRMRLSGPQAFDKNEINSIQSTEGLLEKIIKQAKHIFLRSRTAATIDSLASRIEDPQIQAHWSNINDVYESSVKVLITSQGYEQICKSIQLQLNIGVEQVRVVHRDGRVIMLSHQEQELQDFLLSQMSQHQVHAVQQLAKVMGWQVLSFSNHVGLGPIESIGNASAITVASPSGDYAISVRNGPESGSKIMVQFPRNQCKDLPKSDVLQDSKWSHLRGPFKEVQWNKMEGRNFVYKMELLMSALSPCLL |  |  | binding [4]: binds
11 | Gal4 activation domain fused to p65 CT2 (aa 431–549) (domain or fragment, UniProt Q04207 431-549) EGTLSEALLHLQFDADEDLGALLGNSTDPGVFTDLASVDNSEFQQLLNQGVSMSHSTAEPMLMEYPEAITRLVTGSQRPPDPAPTPLGTSGLPNGLSGDEDFSSIADMDFSALLSQISS |  |  | binding [1]: binds; binding [2]: binds; binding [3]: binds; binding [5]: binds
